The other results are listed elsewhere or left out. At the low end of the ranking the order means little.

Drawing on paper PMC6602471, this text covers binding signal (log fluorescence intensity) for 52 sequences.

In the test the target is T1, ELK1 (UniProt P19419).
T1 sequence: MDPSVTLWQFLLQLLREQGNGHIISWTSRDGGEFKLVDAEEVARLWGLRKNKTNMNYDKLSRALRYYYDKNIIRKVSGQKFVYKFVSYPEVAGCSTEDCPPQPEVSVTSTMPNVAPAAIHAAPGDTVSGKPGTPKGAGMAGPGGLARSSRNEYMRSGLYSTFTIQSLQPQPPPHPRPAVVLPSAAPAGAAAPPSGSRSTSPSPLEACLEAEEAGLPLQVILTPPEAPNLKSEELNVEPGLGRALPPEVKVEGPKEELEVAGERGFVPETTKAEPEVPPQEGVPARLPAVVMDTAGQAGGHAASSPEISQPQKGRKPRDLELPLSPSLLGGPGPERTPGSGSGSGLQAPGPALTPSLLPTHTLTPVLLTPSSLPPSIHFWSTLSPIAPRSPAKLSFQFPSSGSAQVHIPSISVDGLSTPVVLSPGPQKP
The test can be described thus: custom PBM. As to conditions: custom protein-binding microarray; buffer, salt, pH and temperature not stated; high values mean tight binding; double strand, one strand shown.
In the case of “TACTGACTTATATATGCGAAAGCACATGAATAGACCGTCTTGATTCGCTTGACGCTGCTG”, the binding signal (log fluorescence intensity) stood at 8.75.
Consider “CAGTATAGGACTTCTTCCCTGAAGCAATTGATAACCGTCTTGATTCGCTTGACGCTGCTG”, for which the binding signal (log fluorescence intensity) was found to be 8.93.
For “GATTAATTTCTGCCCTTATTCGCACGTCCCATAACAGTCTTGATTCGCTTGACGCTGCTG”, the binding signal (log fluorescence intensity) is 8.83.
With “TAAAGGGAAGACGGTTGTGGTAGTTCCGGGTCTTAAGTCTTGATTCGCTTGACGCTGCTG”, the binding signal (log fluorescence intensity) was determined as 11.2.
For the sequence “CAGCATAGGACTTCTTCCCGGAAGCAATTGATAACCGTCTTGATTCGCTTGACGCTGCTG”, the binding signal (log fluorescence intensity) came out at 10.9.
Regarding “CGGAAGTGTCGTAAACGTCGGATATCTGGTTCTTCTGTCTTGATTCGCTTGACGCTGCTG”, the binding signal (log fluorescence intensity) was found to be 9.04.
Consider “CACAATTTTTACAGTAATGTAGCACGCGTATCTCCTGTCTTGATTCGCTTGACGCTGCTG”, for which the binding signal (log fluorescence intensity) amounted to 8.73.
Then “GCTGCTGCGGTGCATACCCCACCGGATGTGATCCCGGTCTTGATTCGCTTGACGCTGCTG”, with 10.2.
Take “TACTGACTTATATCTGCGAATGCACATGAATAGACCGTCTTGATTCGCTTGACGCTGCTG”: the binding signal (log fluorescence intensity) turned out to be 8.83.
With “TAAGGGGAAGACGGTTGTGGTAGTTCCGGGTATTAAGTCTTGATTCGCTTGACGCTGCTG”, the binding signal (log fluorescence intensity) worked out at 11.3.
As to “TAAAGGGAAGACGATTGTGGTAGTTCCGGGTATTAAGTCTTGATTCGCTTGACGCTGCTG”, the binding signal (log fluorescence intensity) worked out at 11.1.
Consider “GATTAATTTCTGCCCTTATTCGCACGTGCAATAACAGTCTTGATTCGCTTGACGCTGCTG”, for which the binding signal (log fluorescence intensity) is 8.87.
Consider “TAAAGGGAAGACGGTTGTGGTAGTTCCCGGTATTAAGTCTTGATTCGCTTGACGCTGCTG”, for which the binding signal (log fluorescence intensity) turned out to be 9.18.
Turning to “CGGAAGTGTCGTAAACGTCGGATATCCCGTTCTTCTGTCTTGATTCGCTTGACGCTGCTG”, the binding signal (log fluorescence intensity) stood at 9.22.
With “TAAAGGGAAGACGGTTGTGGTAGTTCCGGGTACTAAGTCTTGATTCGCTTGACGCTGCTG”, the binding signal (log fluorescence intensity) was found to be 11.3.
For the sequence “GCTGCTGCGGTGCATACTCCACCGGATGTGACCCCGGTCTTGATTCGCTTGACGCTGCTG”, the binding signal (log fluorescence intensity) was 10.1.
Then “GGAATAAGGCCCAGGGTAACACCGGAAGTGGGCTTAGTCTTGATTCGCTTGACGCTGCTG”, with 10.9; and “GCTGCTACGGTGCATACCCCACCGGATGTGACCCCGGTCTTGATTCGCTTGACGCTGCTG”, with 10.3; and “TCCGGCTACCAGCTCTACCCACTTCAGGCCTTGTAGGTCTTGATTCGCTTGACGCTGCTG”, with 8.98.
“GCTGCTGCGGTGCATACCCGACCGGATGTGACCCCGGTCTTGATTCGCTTGACGCTGCTG”: the binding signal (log fluorescence intensity) is 10.5.
For the sequence “CAGCATAGGACTTTTTCCCTGAAGCAATTGATAACCGTCTTGATTCGCTTGACGCTGCTG”, the binding signal (log fluorescence intensity) was found to be 8.75.
Then “GTGTATAGGATCCCATCCGACACACGTGTTAAAATGGTCTTGATTCGCTTGACGCTGCTG”, with 9.14; and “TAAAGGGAAGACAGTTGTGGTAGTTCCGGGTATTAAGTCTTGATTCGCTTGACGCTGCTG”, with 11.2; and “CACAATTTTTACAGTCATGTAGCACGCGTAACTCCTGTCTTGATTCGCTTGACGCTGCTG”, with 8.87.
Then “TAAAGGGAAGACGGGTGTGGTAGTTCCGGGTATTAAGTCTTGATTCGCTTGACGCTGCTG”, with 11.2; and “CGGAAGTGTCCTAAACGTCGGATATCCGGTTCTTCTGTCTTGATTCGCTTGACGCTGCTG”, with 12.4; and “AGTCGGGTAAGGGAATGTAGATCACGTGAATGAAAAGTCTTGATTCGCTTGACGCTGCTG”, with 8.83.
Take “TACTGACTTCTATATGCGAATGCACATGAATAGACCGTCTTGATTCGCTTGACGCTGCTG”: the binding signal (log fluorescence intensity) worked out at 8.96.
Regarding “TAAAGGGAAGACGGTTGTGGTAGTTCCGGGTATTAGGTCTTGATTCGCTTGACGCTGCTG”, the binding signal (log fluorescence intensity) is 11.3.
Take “CGGAAGTGTCGTAAACGTCGGATATCCGTTTCTTCTGTCTTGATTCGCTTGACGCTGCTG”: the binding signal (log fluorescence intensity) was found to be 11.5.
On to “CTGGGACTTGACCCAACTCTGCCACGTGGGTGGTTTGTCTTGATTCGCTTGACGCTGCTG”, for which the binding signal (log fluorescence intensity) stood at 8.94.
On to “GGAAAAAGGCCCAGGGTAACACCCGAAGTGGGCTTAGTCTTGATTCGCTTGACGCTGCTG”, for which the binding signal (log fluorescence intensity) was 8.95.
Turning to “TACTGACTTATATATGCGTATGCACATGAATAGACCGTCTTGATTCGCTTGACGCTGCTG”, the binding signal (log fluorescence intensity) turned out to be 8.7.
Take “TCCGGCTACCAGCTCCACCCACTTCAGACCTTGTAGGTCTTGATTCGCTTGACGCTGCTG”: the binding signal (log fluorescence intensity) worked out at 8.94.
Then “CACAATTTTTACAGCAATGTAGCACGCGTAACTCCTGTCTTGATTCGCTTGACGCTGCTG”, with 8.93; and “CAGCATAGGACGTCTTCCCTGAAGCAATTGATAACCGTCTTGATTCGCTTGACGCTGCTG”, with 8.91.
The value for “GGAAAAGGGCCCAGGGTAACACCGGAAGTGGGCTTAGTCTTGATTCGCTTGACGCTGCTG” was 10.8.
Regarding “GCTGCTGCGGTACATACCCCACCGGATGTGACCCCGGTCTTGATTCGCTTGACGCTGCTG”, the binding signal (log fluorescence intensity) was found to be 10.3.
Then “TCCGGCTACAAGCTCCACCCACTTCAGGCCTTGTAGGTCTTGATTCGCTTGACGCTGCTG”, with 8.93.
For the sequence “GGAAAAAGGCCCAGGGTAACCCCGGAAGTGGGCTTAGTCTTGATTCGCTTGACGCTGCTG”, the binding signal (log fluorescence intensity) was found to be 10.5.
For the sequence “CGGAAGTCTCGTAAACGTCGGATATCCGGTTCTTCTGTCTTGATTCGCTTGACGCTGCTG”, the binding signal (log fluorescence intensity) is 12.
Consider “CGGGGACTTGACCCAACTCTGCCACGTGGGTCGTTTGTCTTGATTCGCTTGACGCTGCTG”, for which the binding signal (log fluorescence intensity) came to 8.96.
Regarding “TGTCGGGTAAGGGAATGTAGATCACGTGAATGATAAGTCTTGATTCGCTTGACGCTGCTG”, the binding signal (log fluorescence intensity) was 9.11.
Then “TCCGGCTACCAGCTCCACCCACTTCAGTCCTTGTAGGTCTTGATTCGCTTGACGCTGCTG”, with 9.06.
Turning to “CGCAAGTGTCGTAAACGTCGGATATCCGGTTCTTCTGTCTTGATTCGCTTGACGCTGCTG”, the binding signal (log fluorescence intensity) came to 12.6.
Regarding “CTGGGACTTGACCCAACTCTGCCATGTGGGTCGTTTGTCTTGATTCGCTTGACGCTGCTG”, the binding signal (log fluorescence intensity) was determined as 8.78.
“GTGTATAGGATCCCAGCCAACACACGTGTTAAAATGGTCTTGATTCGCTTGACGCTGCTG”: the binding signal (log fluorescence intensity) was 8.95.
Then “CGGAAGTGTCGTAAGCGTCGGATATCCGGTTCTTCTGTCTTGATTCGCTTGACGCTGCTG”, with 12.4.
Regarding “TACTGACTTATATATGCGAATGCATATGAATAGACCGTCTTGATTCGCTTGACGCTGCTG”, the binding signal (log fluorescence intensity) came out at 8.91.
With “CACAATTTTTACAGTAATGTGGCACGCGTAACTCCTGTCTTGATTCGCTTGACGCTGCTG”, the binding signal (log fluorescence intensity) was found to be 8.9.
Take “TACTGACTTATATATGCGAATGCACATGAATAGACCGTCTTGATTCGCTTGACGCTGCTG”: the binding signal (log fluorescence intensity) came out at 8.91.
Consider “TACTGACTAATATATGCGAATGCACATGAATAGACCGTCTTGATTCGCTTGACGCTGCTG”, for which the binding signal (log fluorescence intensity) was determined as 8.92.
